The results in this text go back to PMC12136788.

Sequences and labels used below:
T1: UNK ZnF1-3 (human, UniProt Q9C0B0 31-174)
T1 sequence: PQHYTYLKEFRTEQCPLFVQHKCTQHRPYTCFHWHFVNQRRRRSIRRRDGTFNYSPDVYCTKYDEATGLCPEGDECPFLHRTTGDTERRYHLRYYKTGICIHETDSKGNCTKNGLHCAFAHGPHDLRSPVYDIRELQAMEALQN

B1: 1782286_1782559_860_CDS_ENSG00000132383_ENST00000254719|human|control|control (ssRNA)
RNA: GGGAGUUCUACAGUCCGACGAUCUGUGAACUGCUUGUUAGCAAUCUUCAGGGUGCCUUUCGAGAAAUAAUACACCUUGUUCACUUCAAUAAGAGGAAAGAACUUGUCCACUUGCUCAUUGAAAGCUGUAGCUCGGAUUUCACCCAACAGAGGAUUGAGCAUCA
B2: chr1:88248876:88248877:-_ENSMUSG00000026234_ENSMUST00000027438|perfect_dup|motif|central (ssRNA)
RNA: GGGAGUUCUACAGUCCGACGAUCUUCCAUUUUAUUACAGGAAUUUAAAGCUUCUUUAGCAUCUUCAAAUGAAGCAAAUUCGGUAAAUGCAUACCCUUUAGGUUUGCCAUGUGGGUUCUGGGGCACUUUGAUAAAAGUUGCUUUCAACAGAGGAUUGAGCAUCA
B3: chr6:38652254:38652255:-_ENSG00000124767_ENST00000373365|hu_hu|hu_hu_hu_mus_False|18_108 (ssRNA)
RNA: GGGAGUUCUACAGUCCGACGAUCCGAAAACUUCAUAGCAGGGAAGUCAAGCUUCUGCAGGAGGGUCAGUCCAAGAACCCUCGUAUAAAAAUCCAGGGACUUCUUAGGAUCCUUAAUUCGUAGCAUGGUUUGCUGCAGUAGAAACAACAGAGGAUUGAGCAUCA
B4: 141887142_141887986_1707_CDS_ENSMUSG00000041688_ENSMUST00000112835|mouse|control|control (ssRNA)
RNA: GGGAGUUCUACAGUCCGACGAUCAAUAAUCUGGGCAUGGAGGGUCUUAAUCCUUCCUUCCAUGUCCAAGCAACGCUUGUUGGCCAUCAGGAUUUCUUCCUCUUCCUUCUGGAUGCGGGCCUCUAAGGCUGUGUCAUAGCUGGUCAACAGAGGAUUGAGCAUCA
B5: chr8:73282188:73282189:+_ENSMUSG00000031840_ENSMUST00000034301|mus_mus|FALSE|FALSE (ssRNA)
RNA: GGGAGUUCUACAGUCCGACGAUCAGAGUGACAUCUGGUCCCCUCUUCACAACUGACAACUGUGGACGGGAUGGUUUACAAAAACAAAAUGGGGGUGGGGGGUAAAGGAGAGGGAGCAGCAGUGACCACAAUACACCACGGCCGCAACAGAGGAUUGAGCAUCA
B6: 25274920_25277050_2474_CDS_ENSG00000100994_ENST00000216962|human|control|control (ssRNA)
RNA: GGGAGUUCUACAGUCCGACGAUCGCAGGCGAUGUUCCUGAUGACCUUCUUGGUCCACUCCUUGGGGUUCCGGUACAGCUGGUCCACCUGUGCCUGGCACUGCAUGUAGGCUUCAUAGUCUGCAAACACCUUGAACCUGUCAUGCAACAGAGGAUUGAGCAUCA
B7: chr1:220379288:220379289:-_ENSG00000118873_ENST00000358951|hu_hu|FALSE|FALSE (ssRNA)
RNA: GGGAGUUCUACAGUCCGACGAUCUGAUGCUGCAGCUUUUGCUACCUGAUUUCGACAAGCACGAAGAGAUUGAAAAAGGCUAAAUCCAUCAAUAGUCACAAUGGCAGCUGGAUAUAAGAUACUCAACUCUUCAUUCUGCUCAGUCAACAGAGGAUUGAGCAUCA
B8: chr6:41067180:41067181:+_ENSG00000001167_ENST00000341376|hu_mus|FALSE|FALSE (ssRNA)
RNA: GGGAGUUCUACAGUCCGACGAUCAAACCCAAGCAUCUGCAUCAAAGGAAAGAAAACUCAAACUUGCCUACGAGGUUAGGGUUAUGUACAAACUUACAGACACGAAUAAAUAGCAUUCUACAACUGCUGGCUGAAGCGCUACUGCAACAGAGGAUUGAGCAUCA
B9: 113119565_113119685_3220_3pUTR_ENSMUSG00000042873_ENSMUST00000162280|mouse|control|control (ssRNA)
RNA: GGGAGUUCUACAGUCCGACGAUCCUCUCCAGAUCUCUCUCUCUCUCUCUCUCUCUCUCUCUCUCUCUCUCUCUCUCUCUCUCUCUCUCUCUCUCUCCAUUCUCUCCAUUCCUCCCUUUCCAUGCCUGUCGCCUGUCUCCUGCCCAACAGAGGAUUGAGCAUCA
B10: chr7:99056824:99056825:-_ENSG00000241468_ENST00000394186|hu_mus|FALSE|FALSE (ssRNA)
RNA: GGGAGUUCUACAGUCCGACGAUCUCAGUGGUACUUGCGUCGCCGCUCAUGUUUGAGUUCCUUGUAAGAAAUGCAGUAGCUGAAAACCACGUAGGCUGCCAGGACCAUGCUAAUCCCCGAGAUGCUGCCUUUCCGAACGUUGAUCAACAGAGGAUUGAGCAUCA
B11: 93998217_93998337_1080_3pUTR_ENSMUSG00000055932_ENSMUST00000069718|mouse|control|control (ssRNA)
RNA: GGGAGUUCUACAGUCCGACGAUCCCUCUCCUUGUUUCAAAACUGCAGGAUCAAAGGAUUUCAACGAGACGUCGCCAUCGUCUGAGUCAUUGAGGACAUUCUGCAGCGCCAACUGACAGCGUUCUAAGAUAUAAUCCAAGGUGCCAACAGAGGAUUGAGCAUCA
B12: chr9:59188957:59188958:-_ENSMUSG00000025235_ENSMUST00000026265|mus_mus|FALSE|FALSE (ssRNA)
RNA: GGGAGUUCUACAGUCCGACGAUCGGCCACCUGCUUGAGAUUAUCAGCACACUGUGGGCUGAGAACAGCACAUGUCUGAAAGAGUUCUAGGGAUUCUUGGAUAUUUCCUUCCAGGCGAAAAAUCAGUGCUUGGACAUAGAUAGCCAACAGAGGAUUGAGCAUCA
B13: chr6:40197388:40197389:+_ENSMUSG00000057716_ENSMUST00000061740|mus_mus|mus_mus_mus_hu_False|18_18 (ssRNA)
RNA: GGGAGUUCUACAGUCCGACGAUCGAGACACUGGGGUGGAUUUAUUCCACCUCUGUUUGGGUGCUAGCCACUAAGACUGUUAUUUUGGGAUUCAUGGCCUUGAAUAUCAAGAGGGAAGGGACGAGAAUGGAAAGAGUCAAGAGUCAACAGAGGAUUGAGCAUCA
B14: chr19:16212804:16212805:+_ENSG00000167460_ENST00000300933|hu_mus|hu_hu_hu_mus_False|58_58 (ssRNA)
RNA: GGGAGUUCUACAGUCCGACGAUCAACAAUUCUGGAGUGAAGGAAAGAUGUAACAUGGAACAGCAUUAAAGCUCAGUAUUACUAUAUAUGGGCAACAAUGAUCACCCCAGCAUUCUCGCUUGGAAUGCUUAAAGACAAUCUGUUCAACAGAGGAUUGAGCAUCA
B15: chr5:56177553:56177554:+_ENSG00000095015_ENST00000399503|hu_mus|FALSE|FALSE (ssRNA)
RNA: GGGAGUUCUACAGUCCGACGAUCAUCCGCGAUAGCCAUCAGACGCCGGCGCAUCCUGGUGAAGUGGGUGGAGCCAGAAGCAUUAAGCAUGGUUACCAGCUUGGAAAACACAGCGGGCACUGCGGUCACCAUCCUGGCAGAGCUCAACAGAGGAUUGAGCAUCA
B16: chr4:128995729:128995730:-_ENSMUSG00000057236_ENSMUST00000102598|mus_hu|FALSE|FALSE (ssRNA)
RNA: GGGAGUUCUACAGUCCGACGAUCCUCUCCAAUUUUACUUAAAUCCCAGACAUUCAGUCUGCGAUCAGUACCACUGGAAGCUAAAAUAGUCUCAUUGUGAGGUGACCACUGAACCUGGAAUAUUUCAUCCUUAUGUGACUCAAACAACAGAGGAUUGAGCAUCA
B17: chr17:37009338:37009339:-_ENSG00000125691_ENST00000394332|hu_mus|FALSE|FALSE (ssRNA)
RNA: GGGAGUUCUACAGUCCGACGAUCUCUGCACAGUUGAUCACAGCUCCGACCGGAAGACCCAGGGAAAUCCGGAAUUUCGCCCCGGAGGACCCACCGCGUCCUCGCUUCGACAUCUUGAACGCCCGGAAAGGGUCAGAAAGGAAGCAACAGAGGAUUGAGCAUCA
B18: chr7:56126341:56126342:+_ENSG00000146731_ENST00000540286|hu_mus|hu_hu_hu_mus_True|1_68 (ssRNA)
RNA: GGGAGUUCUACAGUCCGACGAUCCAUGUUUCUCCUCUUGGCUCUGCGCAGAGCUACGAUCCCUUCUUUUGAAAGAGCAUCUAAGGAAAAGGGGUCAAUCCCCUUUUGAUUAAUAACGACAAAUCCUUUAUCUGAGUCGCCACACAACAGAGGAUUGAGCAUCA
B19: 57309863_57312345_2297_CDS_ENSMUSG00000079184_ENSMUST00000116468|mouse|control|control (ssRNA)
RNA: GGGAGUUCUACAGUCCGACGAUCGCAUGCUAUUGGGAAAACAGGUUCCAGUAGAGCAAGGCGAGAUUCAAAGUAAUCCCUGAUUGUUUCUUCUGCAACUCUGGAAAGUGUCUCCAAGUGGCUCUUCAGCAGUUCAUAUACAAGCAACAGAGGAUUGAGCAUCA
B20: chr19:8913615:8913616:-_ENSMUSG00000071658_ENSMUST00000096259|mus_hu|mus_mus_mus_hu_False|18_38 (ssRNA)
RNA: GGGAGUUCUACAGUCCGACGAUCAGGGUACCAAAACCUUCUGCCUGAAAUGGGUGCCCCACCCAGUAGGGAGUUGCAGCUGAAAGUAUCUGAUGCACUGACAGUUACUAUACGAAAGGUCACUAGAGGGGAGGGCCAGGCCAGCAACAGAGGAUUGAGCAUCA
B21: chr1:36068893:36068894:-_ENSG00000126067_ENST00000373237|hu_mus|FALSE|FALSE (ssRNA)
RNA: GGGAGUUCUACAGUCCGACGAUCCCCUGGUGAGUGGGAGGGAAGGACGUGACGUUAGGAGUCCCGCUUAGGGAAGGCAAUGUUCUCCAGAUUGUGGAUGCCAUCUUUGUCAAUGACCCGGACACUGAAGGUGGGCAGAUUCAACAACAGAGGAUUGAGCAUCA
B22: chr3:14508043:14508044:+_ENSG00000131389_ENST00000360861|hu_hu|FALSE|FALSE (ssRNA)
RNA: GGGAGUUCUACAGUCCGACGAUCCGCGCCCGGCAGCGUCAGCCCUCGGACCAGCAGCACCAGGAGCAUGGCGAAUGGAAAAGUGGCUGUGAAGUAGACGACCUUCCCAGUGGACCUGACGCCCUUCCAGAUGCAGAAGAAACACAACAGAGGAUUGAGCAUCA

The list shows a part of the results.

For the experiment, the target named is T1, UNK ZnF1-3. The experiment can be described thus: nsRBNS (natural sequence RNA bind-n-seq); RBNS binding buffer (assumed for nsRBNS): 25 mM Tris pH 7.5, 150 mM KCl, 3 mM MgCl2, 0.01% Triton X-100, 500 ug/ml BSA, 20 U/ml SUPERase-In, 4 C; UNK is unkempt and MSI1 is Musashi-1; names of the RNAs are library labels; protein concentration not given here; high values mean tight binding.
Take B1: the binding signal was 0.826 enrichment R. For B2 the value was 0.771 enrichment R; for B3, 0.531 enrichment R. For B4 the value was 0.62 enrichment R. The molecule B5 displayed a binding signal of 1.96 enrichment R. In turn, B6 had a binding signal of 0.534 enrichment R.

Turning to B7, the binding signal was found to be 1.15 enrichment R. Molecule B8 gave a binding signal of 1.54 enrichment R.

Molecule B9 yielded a binding signal of 0.404 enrichment R. The result for B10 reads 0.658 enrichment R.

In turn, B11 gave a binding signal of 1.14 enrichment R. Molecule B12 showed a binding signal of 1 enrichment R. In the case of B13, the binding signal was 1.23 enrichment R.

Consider B14, for which the binding signal is 1.07 enrichment R. Molecule B15 showed a binding signal of 1.22 enrichment R. B16 yielded a binding signal of 0.777 enrichment R. Molecule B17 had a binding signal of 1.34 enrichment R. With B18, the binding signal amounted to 1.49 enrichment R. Molecule B19 yielded a binding signal of 0.887 enrichment R.

Regarding B20, the binding signal is 1.37 enrichment R. The result for B21 reads 1.3 enrichment R. The molecule B22 yielded a binding signal of 1.2 enrichment R.
